# Measurements reported in the supplement of paper PMC12217912.
# This is one part of the list. The full chains were built here from the parent and the listed change. Values near 0.05 are background.
# B1: TEV protease; numbered along this chain (parent)
# chain: MGESLFKGPRDYNPISSSICHLTNESDGHTTSLYGIGFGPFIITNKHLFRRNNGTLVVQSLHGVFKVKDTTTLQQHLVDGRDMIIIRMPKDFPPFPQKLKFREPQREERICLVTTNFQTKSMSSMVSDTSCTFPSGDGIFWKHWIQTKDGQCGSPLVSTRDGFIVGIHSASNFTNTNNYFTSVPKNFMELLTNQEAQQWVSGWRLNADSVLWGGHKVFMVKPEEPFQPVKEATQL
# Variants of: B1
# Experiment: raw area under fraction-flipped curve 0-4 h after induction (AUC4h, not background-subtracted), DNA-recorder readout of cleavage of the substrate (dimensionless); higher = more cleavage of the substrate by the protease variant
# Details: temperature: 34 °C; time window: 0-4 h after rhamnose induction
# Description: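 In vivo DNA recorder in E. coli TOP10(DE3) ΔrhaA at 34 °C. Each TEVp single-site mutant (parent TEVp 0) is paired with a single-site variant of the 7-mer TEVs (canonical ENLYFQ|S). The substrate sits between flexible linkers in a Bxb1-sfGFP-TEVs-SsrA fusion, so cleavage stabilises Bxb1 and speeds flipping of a recombination array, read by NGS. The value is the raw area under the fraction-flipped curve over 0-4 h after rhamnose induction (AUC4h), with ≥20 reads per time point. It is not background-subtracted; inactive controls average about 0.047.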
# 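Note: Bxb1 expression induced with 0.2% (w/v) L-rhamnose at OD600 near 0.5, cultures sampled hourly, flipped fraction per protease–substrate barcode pair counted by paired-end Illumina sequencing.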
Variant,area with substrate CNLYFQS,area with substrate DNLYFQS,area with substrate FNLYFQS,area with substrate GNLYFQS,area with substrate HNLYFQS,area with substrate INLYFQS,area with substrate KNLYFQS,area with substrate LNLYFQS,area with substrate MNLYFQS,area with substrate NNLYFQS,area with substrate PNLYFQS,area with substrate RNLYFQS,area with substrate SNLYFQS,area with substrate TNLYFQS,area with substrate VNLYFQS,area with substrate WNLYFQS,area with substrate YNLYFQS,area with substrate QNLYFQS
MGESLFKGPRDYNPISSSICHLTNESDGHTTSLYGIGFGPFSITNKHLFRRNNGTLVVQSLHGVFKVKDTTTLQQHLVDGRDMIIIRMPKDFPPFPQKLKFREPQREERICLVTTNFQTKSMSSMVSDTSCTFPSGDGIFWKHWIQTKDGQCGSPLVSTRDGFIVGIHSASNFTNTNNYFTSVPKNFMELLTNQEAQQWVSGWRLNADSVLWGGHKVFMVKPEEPFQPVKEATQL [I42S],0.0527,0.0501,0.0457,0.0499,0.0517,0.0508,0.0567,0.041,0.0522,0.0481,0.0529,0.0458,0.0553,0.0427,0.0505,0.0456,0.0411,–
MGESLFKGPRDYNPISSSICHLTNESDGHTTKLYGIGFGPFIITNKHLFRRNNGTLVVQSLHGVFKVKDTTTLQQHLVDGRDMIIIRMPKDFPPFPQKLKFREPQREERICLVTTNFQTKSMSSMVSDTSCTFPSGDGIFWKHWIQTKDGQCGSPLVSTRDGFIVGIHSASNFTNTNNYFTSVPKNFMELLTNQEAQQWVSGWRLNADSVLWGGHKVFMVKPEEPFQPVKEATQL [S32K],0.0502,0.0714,0.0652,–,–,0.0488,–,–,0.0807,–,–,0.0607,–,–,–,–,0.0525,–
MGESLFKGPRDYNPISSSICHLTNESDGHTTTLYGIGFGPFIITNKHLFRRNNGTLVVQSLHGVFKVKDTTTLQQHLVDGRDMIIIRMPKDFPPFPQKLKFREPQREERICLVTTNFQTKSMSSMVSDTSCTFPSGDGIFWKHWIQTKDGQCGSPLVSTRDGFIVGIHSASNFTNTNNYFTSVPKNFMELLTNQEAQQWVSGWRLNADSVLWGGHKVFMVKPEEPFQPVKEATQL [S32T],0.0675,0.0802,0.0641,0.0714,0.062,–,–,0.0731,0.0052,–,0.0663,0.0754,–,0.0669,–,0.0665,0.0522,–
MGESLFKGPRDYNPISSSICHLTNESDGHTTVLYGIGFGPFIITNKHLFRRNNGTLVVQSLHGVFKVKDTTTLQQHLVDGRDMIIIRMPKDFPPFPQKLKFREPQREERICLVTTNFQTKSMSSMVSDTSCTFPSGDGIFWKHWIQTKDGQCGSPLVSTRDGFIVGIHSASNFTNTNNYFTSVPKNFMELLTNQEAQQWVSGWRLNADSVLWGGHKVFMVKPEEPFQPVKEATQL [S32V],0.0629,–,0.0654,0.0642,0.0564,0.0638,0.0523,0.0912,0.0735,0.0685,–,0.0533,0.0592,0.0658,0.069,0.0576,0.0639,0.0302
MGESLFKGPRDYNPISSSICHLTNESDGHTTCLYGIGFGPFIITNKHLFRRNNGTLVVQSLHGVFKVKDTTTLQQHLVDGRDMIIIRMPKDFPPFPQKLKFREPQREERICLVTTNFQTKSMSSMVSDTSCTFPSGDGIFWKHWIQTKDGQCGSPLVSTRDGFIVGIHSASNFTNTNNYFTSVPKNFMELLTNQEAQQWVSGWRLNADSVLWGGHKVFMVKPEEPFQPVKEATQL [S32C],0.0613,0.0829,0.0895,–,0.0729,0.0601,–,0.0468,0.0616,0.0769,0.0694,0.0712,0.0806,0.0657,–,0.055,–,–
MGESLFKGPRDYNPISSSICHLTNESDGHTTFLYGIGFGPFIITNKHLFRRNNGTLVVQSLHGVFKVKDTTTLQQHLVDGRDMIIIRMPKDFPPFPQKLKFREPQREERICLVTTNFQTKSMSSMVSDTSCTFPSGDGIFWKHWIQTKDGQCGSPLVSTRDGFIVGIHSASNFTNTNNYFTSVPKNFMELLTNQEAQQWVSGWRLNADSVLWGGHKVFMVKPEEPFQPVKEATQL [S32F],0.0762,0.0545,0.054,0.0736,0.0621,0.0561,0.068,0.0652,0.0527,0.0677,–,–,0.075,0.0603,–,0.0569,0.0416,–
MGESLFKGPRDYNPISSSICHLTPESDGHTTSLYGIGFGPFIITNKHLFRRNNGTLVVQSLHGVFKVKDTTTLQQHLVDGRDMIIIRMPKDFPPFPQKLKFREPQREERICLVTTNFQTKSMSSMVSDTSCTFPSGDGIFWKHWIQTKDGQCGSPLVSTRDGFIVGIHSASNFTNTNNYFTSVPKNFMELLTNQEAQQWVSGWRLNADSVLWGGHKVFMVKPEEPFQPVKEATQL [N24P],0.0475,0.0583,–,0.0473,0.0516,–,0.0529,0.058,0.0452,0.0455,0.0537,–,–,0.0608,0.0507,0.058,0.0553,0.0487
MGESLFKGPRDYNPISSSICHLTVESDGHTTSLYGIGFGPFIITNKHLFRRNNGTLVVQSLHGVFKVKDTTTLQQHLVDGRDMIIIRMPKDFPPFPQKLKFREPQREERICLVTTNFQTKSMSSMVSDTSCTFPSGDGIFWKHWIQTKDGQCGSPLVSTRDGFIVGIHSASNFTNTNNYFTSVPKNFMELLTNQEAQQWVSGWRLNADSVLWGGHKVFMVKPEEPFQPVKEATQL [N24V],0.0727,0.0639,0.0599,0.0635,0.0619,0.0611,0.0681,0.0542,0.0643,–,0.0673,–,0.07,0.0756,0.0638,0.055,0.0632,–
MGESLFKGPRDYNPISSSICHLTGESDGHTTSLYGIGFGPFIITNKHLFRRNNGTLVVQSLHGVFKVKDTTTLQQHLVDGRDMIIIRMPKDFPPFPQKLKFREPQREERICLVTTNFQTKSMSSMVSDTSCTFPSGDGIFWKHWIQTKDGQCGSPLVSTRDGFIVGIHSASNFTNTNNYFTSVPKNFMELLTNQEAQQWVSGWRLNADSVLWGGHKVFMVKPEEPFQPVKEATQL [N24G],0.066,0.0521,0.0679,0.0604,0.0595,0.0612,–,0.072,0.0564,0.0567,0.0554,0.0528,0.0633,0.0563,0.0633,0.0621,0.0595,0.0643
MGESLFKGPRDYNPISSSICHLTFESDGHTTSLYGIGFGPFIITNKHLFRRNNGTLVVQSLHGVFKVKDTTTLQQHLVDGRDMIIIRMPKDFPPFPQKLKFREPQREERICLVTTNFQTKSMSSMVSDTSCTFPSGDGIFWKHWIQTKDGQCGSPLVSTRDGFIVGIHSASNFTNTNNYFTSVPKNFMELLTNQEAQQWVSGWRLNADSVLWGGHKVFMVKPEEPFQPVKEATQL [N24F],0.0836,–,0.0729,–,0.0619,0.0623,–,0.0737,0.0705,0.0698,0.071,0.0555,0.0823,0.0583,–,0.0532,0.0607,0.0601
MGESLFKGPRDYNPISSSICHLTAESDGHTTSLYGIGFGPFIITNKHLFRRNNGTLVVQSLHGVFKVKDTTTLQQHLVDGRDMIIIRMPKDFPPFPQKLKFREPQREERICLVTTNFQTKSMSSMVSDTSCTFPSGDGIFWKHWIQTKDGQCGSPLVSTRDGFIVGIHSASNFTNTNNYFTSVPKNFMELLTNQEAQQWVSGWRLNADSVLWGGHKVFMVKPEEPFQPVKEATQL [N24A],0.0631,–,0.0499,–,0.0683,–,–,0.0677,0.0625,0.0652,0.0678,–,0.0565,0.0634,–,0.0657,0.0922,–
MGESLFKGPRDYNPISSSICHLTSESDGHTTSLYGIGFGPFIITNKHLFRRNNGTLVVQSLHGVFKVKDTTTLQQHLVDGRDMIIIRMPKDFPPFPQKLKFREPQREERICLVTTNFQTKSMSSMVSDTSCTFPSGDGIFWKHWIQTKDGQCGSPLVSTRDGFIVGIHSASNFTNTNNYFTSVPKNFMELLTNQEAQQWVSGWRLNADSVLWGGHKVFMVKPEEPFQPVKEATQL [N24S],0.0816,0.0734,0.0437,–,0.0664,0.0655,0.061,0.0634,0.0615,0.0581,0.0624,–,0.0725,0.0466,–,0.0641,0.0511,–
MGESLFKGPRDYNPISSSICHLTNESDGHTTSLYGIQFGPFIITNKHLFRRNNGTLVVQSLHGVFKVKDTTTLQQHLVDGRDMIIIRMPKDFPPFPQKLKFREPQREERICLVTTNFQTKSMSSMVSDTSCTFPSGDGIFWKHWIQTKDGQCGSPLVSTRDGFIVGIHSASNFTNTNNYFTSVPKNFMELLTNQEAQQWVSGWRLNADSVLWGGHKVFMVKPEEPFQPVKEATQL [G37Q],0.0607,0.0477,0.0618,0.0571,0.0599,0.0536,0.0596,–,–,0.0557,0.0578,–,0.0626,0.0509,0.0499,0.0483,–,–
MGESLFKGPRDYNPISSSICHLTNESDGHTTSLYGIGFGMFIITNKHLFRRNNGTLVVQSLHGVFKVKDTTTLQQHLVDGRDMIIIRMPKDFPPFPQKLKFREPQREERICLVTTNFQTKSMSSMVSDTSCTFPSGDGIFWKHWIQTKDGQCGSPLVSTRDGFIVGIHSASNFTNTNNYFTSVPKNFMELLTNQEAQQWVSGWRLNADSVLWGGHKVFMVKPEEPFQPVKEATQL [P40M],0.0616,–,0.09,–,0.0613,–,–,0.0622,–,–,–,0.0389,0.0686,–,–,0.0593,–,0.0621
MGESLFKGPRDYNPISSSICHLTNESDGHTTSLYGIGFGWFIITNKHLFRRNNGTLVVQSLHGVFKVKDTTTLQQHLVDGRDMIIIRMPKDFPPFPQKLKFREPQREERICLVTTNFQTKSMSSMVSDTSCTFPSGDGIFWKHWIQTKDGQCGSPLVSTRDGFIVGIHSASNFTNTNNYFTSVPKNFMELLTNQEAQQWVSGWRLNADSVLWGGHKVFMVKPEEPFQPVKEATQL [P40W],0.0597,–,0.0634,–,0.0583,–,–,–,0.0672,0.0553,–,–,0.0636,–,–,0.0472,0.0668,–
MGESLFKGPRDYNPISSSICHLTNCSDGHTTSLYGIGFGPFIITNKHLFRRNNGTLVVQSLHGVFKVKDTTTLQQHLVDGRDMIIIRMPKDFPPFPQKLKFREPQREERICLVTTNFQTKSMSSMVSDTSCTFPSGDGIFWKHWIQTKDGQCGSPLVSTRDGFIVGIHSASNFTNTNNYFTSVPKNFMELLTNQEAQQWVSGWRLNADSVLWGGHKVFMVKPEEPFQPVKEATQL [E25C],0.0634,0.0742,0.0626,0.0667,0.0638,0.0635,0.0457,0.07,0.067,0.0647,0.0584,0.0788,0.0631,0.0681,0.0663,0.0532,0.065,–
MGESLFKGPRDYNPISSSICHLTNESDGHTTSSYGIGFGPFIITNKHLFRRNNGTLVVQSLHGVFKVKDTTTLQQHLVDGRDMIIIRMPKDFPPFPQKLKFREPQREERICLVTTNFQTKSMSSMVSDTSCTFPSGDGIFWKHWIQTKDGQCGSPLVSTRDGFIVGIHSASNFTNTNNYFTSVPKNFMELLTNQEAQQWVSGWRLNADSVLWGGHKVFMVKPEEPFQPVKEATQL [L33S],0.0628,0.0766,0.0558,0.0523,0.0602,–,0.0627,0.0632,0.0578,0.0476,0.0676,–,0.0566,0.0644,–,0.0546,0.0638,–
MGESLFKGPRDYNPISSSICHLTNESDGHTTSLYGIGFGPDIITNKHLFRRNNGTLVVQSLHGVFKVKDTTTLQQHLVDGRDMIIIRMPKDFPPFPQKLKFREPQREERICLVTTNFQTKSMSSMVSDTSCTFPSGDGIFWKHWIQTKDGQCGSPLVSTRDGFIVGIHSASNFTNTNNYFTSVPKNFMELLTNQEAQQWVSGWRLNADSVLWGGHKVFMVKPEEPFQPVKEATQL [F41D],0.0569,0.0502,0.0499,–,0.0287,–,0.0509,0.0571,0.0548,–,0.0672,0.0471,0.0508,0.0459,–,0.0556,0.0469,–
